Experimental data: the supplement of paper PMC4166925
± gives the standard deviation of the averaged measurements. The full ranking holds about 33,000 sequences; the median of “E-score (dimensionless, -0.5 to 0.5)” is about -0.049, and the highest 2% start at about 0.37. The list shows a part of the results.

test system: T1, PmTbr T-box DNA-binding domain (GST fusion); test: PBM E-score of 8-mer (E-score (dimensionless, -0.5 to 0.5)); Tbr is Tbrain of the sea star Patiria miniata (Pm) or the sea urchin Strongylocentrotus purpuratus (Sp); higher = stronger binding preference; most listed sequences are background and not binding sites; conditions: the construct has about 5 more residues each side
T1 sequence: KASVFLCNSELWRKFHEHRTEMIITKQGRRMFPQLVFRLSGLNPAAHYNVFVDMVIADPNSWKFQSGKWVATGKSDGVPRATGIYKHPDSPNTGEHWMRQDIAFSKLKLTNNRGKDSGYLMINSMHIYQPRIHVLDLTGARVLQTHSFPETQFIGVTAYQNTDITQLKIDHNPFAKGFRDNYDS
Method in brief: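 Universal Agilent oligonucleotide arrays, made double-stranded by primer extension, were incubated with 200 nM GST-fused Tbr T-box DNA-binding domain in PBS (pH 7.5). The protein was expressed in BL21 E. coli at 20 °C and purified by glutathione affinity chromatography. After scanning and quantification, the Universal PBM Analysis Suite assigned an enrichment E-score to each ungapped 8-mer, averaged over duplicate arrays.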

Row | Sequence | PBM E-score of 8-mer
1 | CGTGGTAC | -0.0769 ± 0.039
2 | AAAAATGG | -0.212 ± 0.15
3 | TCCATACA | -0.248 ± 0.0049
4 | TATTTCCA | -0.134 ± 0.027
5 | AGGAGAGC | -0.282 ± 0.056
6 | CTATAGCA | -0.00492 ± 0.045
7 | AAGCGTTG | 0.196 ± 0.0021
8 | CGGAGCCC | -0.276 ± 0.086
9 | AGAAGACA | 0.0278 ± 0.0013
10 | ATACAGTA | -0.14 ± 0.067
11 | CCGGGCAG | -0.0095 ± 0.03
12 | CAGCCGCG | -0.0288 ± 0.076
13 | AGACATAC | -0.0914 ± 0.01
14 | AGAGGCAT | -0.313 ± 0.018
15 | CCAGCAAC | 0.141 ± 0.0096
16 | CGGATTTA | -0.0413 ± 0.027
17 | AGCGTCCG | -0.0687 ± 0.02
18 | AGTGTGAA | 0.48836 ± 0.00035
19 | GAATGTTA | -0.0965 ± 0.064
20 | AAAGAGAC | -0.0189 ± 0.0068
21 | ATGCATCG | -0.207 ± 0.081
22 | ACGGCGAC | -0.00352 ± 0.027
23 | AATTTAGG | -0.196 ± 0.066
24 | AAGCATAA | -0.129 ± 0.019
25 | ACTCCGGC | 0.0353 ± 0.087

Row | Sequence | PBM E-score of 8-mer
26 | GATGCTAA | 0.0342 ± 0.0048
27 | ATCGTAGC | -0.0594 ± 0.0091
28 | GACAACTA | 0.11 ± 0.0063
29 | ACGAGCCT | -0.163 ± 0.091
30 | CTACCCTC | 0.0124 ± 0.021
31 | ACCAGCAA | 0.0382 ± 0.0024
32 | AGCTAGAC | -0.0397 ± 0.12
33 | CGTAGGCC | -0.213 ± 0.033
34 | GCCCTCGA | -0.187 ± 0.008
35 | AGCGTATC | -0.202 ± 0.078
36 | GATTGGCA | 0.103 ± 0.051
37 | TCAATCCA | -0.0657 ± 0.0029
38 | GCACCCAA | 0.193 ± 0.016
39 | ATGGGTTG | -0.0958 ± 0.096
40 | CTAAGCAG | -0.0891 ± 0.046
41 | GTCATGTA | -0.1 ± 0.016
42 | GCGATCAA | 0.0305 ± 0.063
43 | ATGAGATA | 0.0769 ± 0.017
44 | CCGGTCCG | -0.305 ± 0.046
45 | CCCGTCTC | -0.214 ± 0.044
46 | TCCGAGGA | -0.288 ± 0.022
47 | GGACTTAC | -0.069 ± 0.0061
48 | AGGTCTAA | -0.177 ± 0.013
49 | ACATGCCC | -0.167 ± 0.0097
50 | ACAATCGC | 0.117 ± 0.028

Row | Sequence | PBM E-score of 8-mer
51 | CCCGTAGA | -0.301 ± 0.096
52 | ACCACGGT | 0.0773 ± 0.036
53 | CAAGTCCG | -0.0558 ± 0.036
54 | AAATATGT | 0.0537 ± 0.055
55 | AAAATACT | 0.0413 ± 0.0038
56 | ATATTCAG | -0.174 ± 0.0075
57 | CCCACCAG | -0.0593 ± 0.024
58 | ATGAGTCA | -0.0747 ± 0.0029
59 | AATCAGGG | -0.154 ± 0.011
60 | ACGGGACG | -0.144 ± 0.026
61 | GTCAGCGA | 0.00654 ± 0.068
62 | ATGAATTG | -0.0244 ± 0.035
63 | GCACCCCA | 0.242 ± 0.0042
64 | TGTGAACA | 0.4216 ± 0.0014
65 | CATCGTAC | -0.215 ± 0.015
66 | GTCGACAC | 0.406 ± 0.013
67 | TACGTAAA | -0.0722 ± 0.0095
68 | GTGTTGGA | 0.382 ± 0.0051
69 | CACCTTAA | 0.385 ± 0.011
70 | CGGGTCAA | -0.062 ± 0.0025
71 | CCAGCCCC | -0.243 ± 0.069
72 | TGGTCAAA | -0.17 ± 0.067
73 | AATTATGG | -0.0713 ± 0.041
74 | CAATAGAC | -0.0365 ± 0.053
75 | ATCCCTAC | -0.128 ± 0.0015

Row | Sequence | PBM E-score of 8-mer
76 | GAGAGGGA | -0.204 ± 0.02
77 | AGGCCAAT | -0.158 ± 0.081
78 | CCGTTAGG | -0.106 ± 0.029
79 | AGCTAACA | 0.209 ± 0.033
80 | ACATCCCA | 0.0661 ± 0.083
81 | GACGCCCA | -0.014 ± 0.024
82 | AACTAAGG | -0.119 ± 0.028
83 | GGCTTTGA | -0.234 ± 0.011
84 | CGACCCTC | -0.0904 ± 0.069
85 | AAGGCGTG | 0.351 ± 0.019
86 | GAGAAGCA | -0.244 ± 0.015
87 | CTAATAAA | -0.154 ± 0.045
88 | AGGCGAAC | -0.0499 ± 0.044
89 | CAAGCTAG | -0.172 ± 0.039
90 | CGCGACGA | 0.249 ± 0.052
91 | AGGTCGCC | -0.0269 ± 0.014
92 | AGAGTAGA | -0.24 ± 0.0091
93 | CAAACACA | 0.088 ± 0.05
94 | CACGTTCC | 0.17 ± 0.042
95 | ATGAAGCG | -0.0388 ± 0.0032
96 | ACCGGTTC | -0.117 ± 0.034
97 | CATCTAGC | 0.055 ± 0.0032
98 | TGGGTCAA | -0.264 ± 0.049
99 | CTTTATTA | -0.182 ± 0.014
100 | CATCCGCA | -0.0741 ± 0.05

Row | Sequence | PBM E-score of 8-mer
101 | CGACGACG | 0.196 ± 0.047
102 | AAACTTAT | -0.179 ± 0.023
103 | AGGCAAGA | -0.165 ± 0.023
104 | ATCTCTTC | -0.152 ± 0.033
105 | ACTCGCGC | 0.29 ± 0.014
106 | CGAAAATA | 0.0936 ± 0.022
107 | GAGAGTTA | -0.0418 ± 0.051
108 | AGATCAGC | 0.107 ± 0.02
109 | CCATTACC | -0.147 ± 0.0032
110 | AATTTATG | 0.0198 ± 0.017
111 | CACGGCCG | 0.13 ± 0.0079
112 | GATTTTGA | -0.0701 ± 0.045
113 | CATACGCA | 0.0622 ± 0.012
114 | AGGACGAC | -0.255 ± 0.091
115 | GTTGATGA | -0.084 ± 0.033
116 | ACTCATGA | -0.00258 ± 0.012
117 | TATATAAA | -0.0861 ± 0.033
118 | ACCTCACC | 0.261 ± 0.028
119 | CATTCTCA | 0.142 ± 0.014
120 | CCAATGGG | -0.235 ± 0.029
121 | TATAATAA | -0.161 ± 0.11
122 | AGACCTTA | -0.154 ± 0.0075
123 | TTTCCAAA | -0.253 ± 0.022
124 | AGATTACG | -0.0578 ± 0.022
125 | ATCTATCG | -0.0094 ± 0.013

Row | Sequence | PBM E-score of 8-mer
126 | ATTTTCTG | -0.125 ± 0.02
127 | AAGCCCCA | -0.164 ± 0.057
128 | ACGGAGCT | 0.0338 ± 0.019
129 | AGCAAGTC | -0.00782 ± 0.031
130 | ATAACTGC | -0.0529 ± 0.073
131 | AACAGTAG | -0.0322 ± 0.0034
132 | CGCCCCTA | -0.067 ± 0.015
133 | CGGACTGA | -0.285 ± 0.0044
134 | GTAACACA | 0.3374 ± 0.0018
135 | CGTACTGA | -0.105 ± 0.017
136 | CAAGAGAA | -0.0649 ± 0.039
137 | ACGACGTC | 0.00952 ± 0.05
138 | GGACTAAA | -0.0761 ± 0.065
139 | CGATCGGC | -0.00361 ± 0.054
140 | AAAGTCGC | 0.157 ± 0.034
141 | AATCAGAG | -0.286 ± 0.021
142 | ATGGGCAG | -0.0292 ± 0.0055
143 | CCCGAAGA | -0.207 ± 0.039
144 | CCAAACGA | 0.0753 ± 0.089
145 | GCGAGAAC | 0.375 ± 0.01
146 | TACGGCCA | -0.108 ± 0.0061
147 | AGTCGACC | -0.125 ± 0.038
148 | GCATCCGA | -0.115 ± 0.02
149 | GCCCCGCA | 0.004 ± 0.014
150 | CGGCTTTA | -0.00848 ± 0.029

Row | Sequence | PBM E-score of 8-mer
151 | ACAGCACA | 0.0896 ± 0.0015
152 | AACTAACG | 0.178 ± 0.017
153 | ACCTGTCT | 0.112 ± 0.039
154 | ACTTAGCT | -0.0647 ± 0.055
155 | ATCTGTAA | -0.0802 ± 0.019
156 | CAATTGAG | -0.258 ± 0.02
157 | CTGCTTGC | -0.132 ± 0.025
158 | GCCTAGGA | -0.156 ± 0.035
159 | ACACCCCG | 0.397 ± 0.029
160 | GCTAAGTA | -0.107 ± 0.0026
161 | CCTTTGCA | 0.0305 ± 0.03
162 | AGCGGCCT | 0.0841 ± 0.041
163 | AGCTGACA | 0.27 ± 0.0082
164 | CCGTATTC | 0.0483 ± 0.06
165 | ACGCTCGA | -0.154 ± 0.03
166 | GCTGCGCA | -0.00302 ± 0.042
167 | AGTTGTAG | -0.105 ± 0.031
168 | ACAAGGGA | -0.117 ± 0.072
169 | AGTAAGAG | -0.135 ± 0.055
170 | TAAACTGA | -0.0928 ± 0.015
171 | CACACCGC | 0.334 ± 0.027
172 | AACATAGG | -0.0922 ± 0.013
